From patent US11000038B2, “Pyridone compounds and agricultural and horticultural fungicides containing the same as active ingredients” (priority 2017, dated 2021)

Columns and labels:
[1] = system: gray mold fungi (Botrytis cinerea); assay: Test Example B: tomato gray mold, spray treatment of tomato plants; conditions: for Test B control value: tomato gray mold; for Test B control value class (tomato gray mold): control value=100{1-(n/3)}
[2] = system: wheat brown rust fungi (Puccinia recondita); assay: Test Example E: wheat brown rust, spray treatment of wheat plants; assay type: in vivo; conditions: for Test E control value: wheat brown rust; for Test E control value class (wheat brown rust): control value=100{1-(n/3)}
[3] = system: barley powdery mildew fungi (Blumeria graminis f. sp. hordei); assay: Test Example D: barley powdery mildew, spray treatment of barley plants; conditions: for Test D control value: barley powdery mildew; for Test D control value class (barley powdery mildew): control value=100{1-(n/3)}
[4] = system: grape downy mildew fungus (Plasmopara viticola); assay: Test Example G: grape downy mildew, spray treatment of grape plants; conditions: for Test G control value: grape downy mildew, 7 to 10 days after inoculation; for Test G control value class (grape downy mildew): 2.5 ml/pot, grape Neomuscat, 7 to 10 days from inoculation
[5] = system: cabbage Alternaria sooty spot fungi (Alternaia brassicicola); assay: Test Example C: cabbage Alternaria sooty spot, spray treatment of cabbage plants; assay type: in vivo; conditions: for Test C control value: cabbage Alternaria sooty spot; for Test C control value class (cabbage Alternaria sooty spot): control value=100{1-(n/3)}
Description: [Test Example C] Cabbage Alternaria Sooty Spot
Test plants (cabbage variety: Shikidori) were cultivated until the cotyledons extended after the sowing of seeds.
<Control Value> Control value=100{1−(n/3)}

[6] = spray treatment of tomato plants
[7] = spray treatment of wheat plants
[8] = spray treatment of barley plants
[9] = spray treatment of cabbage plants

Row | SMILES | Test B control value ([1]; spray treatment) | Test E control value ([2]; spray treatment) | Test D control value ([3]; spray treatment) | Test G control value ([4]; 250 ppm spray) | Test C control value ([5]; spray treatment) | Test B control value [1, 6] | Test E control value [2, 7] | Test D control value [3, 8] | Test G control value ([4]; 250 ppm spray (2.5 ml/pot)) | Test C control value [5, 9] | further results
1 | CCc1c(-c2c(F)cc(F)cc2F)n(-c2cc(F)ccc2C)cc(Br)c1=O [Compound 521] | H (H shows the control value of more than 50%) | H (H shows the control value of more than 50%) | L (L shows the control value of 50% or less) | L (L shows the control value of 50% or less) | H (H shows the control value of more than 50%) | – | – | – | – | – | –
2 | CCOCOc1ccc(C)c(-n2cc(Cl)c(=O)c(Cl)c2-c2c(F)cc(OC)cc2F)c1 [Compound 304] | – | – | – | – | – | H (H shows the control value of more than 50%) | H (H shows the control value of more than 50%) | H (H shows the control value of more than 50%) | H (H shows the control value of more than 50%) | H (H shows the control value of more than 50%) | –
3 | CCc1c(-c2c(F)cccc2F)n(-c2cccc(F)c2C)cc(Br)c1=O [Compound 550] | H (H shows the control value of more than 50%) | H (H shows the control value of more than 50%) | L (L shows the control value of 50% or less) | L (L shows the control value of 50% or less) | H (H shows the control value of more than 50%) | – | – | – | – | – | –
4 | Cc1ccc(F)cc1-n1cc(Br)c(=O)c(Cl)c1-c1c(F)cccc1F [Compound 457] | H (H shows the control value of more than 50%) | H (H shows the control value of more than 50%) | L (L shows the control value of 50% or less) | L (L shows the control value of 50% or less) | H (H shows the control value of more than 50%) | – | – | – | – | – | –
5 | Cc1ccc(C)c(-n2cc(Br)c(=O)c(Cl)c2-c2c(F)cc(F)cc2F)c1 [Compound 143] | – | – | – | – | – | – | – | – | – | – | Test B control value class (tomato gray mold) [1, 6]: H (H shows the control value of more than 50%); Test E control value class (wheat brown rust) [2, 7]: H (H shows the control value of more than 50%); Test D control value class (barley powdery mildew) [3, 8]: H (H shows the control value of more than 50%); Test G control value class (grape downy mildew) ([4]; 250 ppm spray): H (H shows the control value of more than 50%); Test C control value class (cabbage Alternaria sooty spot) [5, 9]: H (H shows the control value of more than 50%)
6 | C=CCn1cc(C)c(=O)c(C)c1-c1c(F)cc(F)cc1F [Compound 268] | – | – | – | – | – | H (H shows the control value of more than 50%) | H (H shows the control value of more than 50%) | H (H shows the control value of more than 50%) | L (L shows the control value of 50% or less) | L (L shows the control value of 50% or less) | –
7 | CCc1c(-c2c(F)cc(F)cc2F)n(-c2cccc(F)c2C)cc(Br)c1=O [Compound 530] | H (H shows the control value of more than 50%) | H (H shows the control value of more than 50%) | H (H shows the control value of more than 50%) | L (L shows the control value of 50% or less) | H (H shows the control value of more than 50%) | – | – | – | – | – | –
8 | CC(c1ccccc1)n1cc(Br)c(=O)c(Cl)c1-c1c(F)cc(F)cc1F (stereo not shown) [Compound 77] | – | – | – | – | – | – | – | – | – | – | Test B control value class (tomato gray mold) [1, 6]: H (H shows the control value of more than 50%); Test E control value class (wheat brown rust) [2, 7]: H (H shows the control value of more than 50%); Test D control value class (barley powdery mildew) [3, 8]: L (L shows the control value of 50% or less); Test G control value class (grape downy mildew) ([4]; 250 ppm spray): L (L shows the control value of 50% or less); Test C control value class (cabbage Alternaria sooty spot) [5, 9]: L (L shows the control value of 50% or less)
9 | Cc1cn(-c2ccccc2)c(-c2ccc(F)c(F)c2)c(C)c1=O [Compound 616] | H (H shows the control value of more than 50%) | H (H shows the control value of more than 50%) | L (L shows the control value of 50% or less) | H (H shows the control value of more than 50%) | H (H shows the control value of more than 50%) | – | – | – | – | – | –
10 | O=c1c(Br)cn(-c2ccccc2)c(-c2ccc(F)cc2Br)c1Cl [Compound 569] | H (H shows the control value of more than 50%) | H (H shows the control value of more than 50%) | L (L shows the control value of 50% or less) | L (L shows the control value of 50% or less) | H (H shows the control value of more than 50%) | – | – | – | – | – | –
11 | Cc1onc(-n2cc(Br)c(=O)c(Br)c2-c2c(F)cc(F)cc2F)c1Br [Compound 147] | – | – | – | – | – | – | – | – | – | – | Test B control value class (tomato gray mold) [1, 6]: H (H shows the control value of more than 50%); Test E control value class (wheat brown rust) [2, 7]: H (H shows the control value of more than 50%); Test D control value class (barley powdery mildew) [3, 8]: H (H shows the control value of more than 50%); Test G control value class (grape downy mildew) ([4]; 250 ppm spray): H (H shows the control value of more than 50%); Test C control value class (cabbage Alternaria sooty spot) [5, 9]: H (H shows the control value of more than 50%)
12 | O=c1c(Br)cn(-c2ccccc2F)c(-c2c(F)cccc2F)c1Cl [Compound 361] | – | – | – | – | – | H (H shows the control value of more than 50%) | H (H shows the control value of more than 50%) | L (L shows the control value of 50% or less) | H (H shows the control value of more than 50%) | H (H shows the control value of more than 50%) | –
13 | Cc1ccc(Cl)cc1-n1cc(Br)c(=O)c(Cl)c1-c1c(F)cc(F)cc1F [Compound 230] | – | – | – | – | – | H (H shows the control value of more than 50%) | H (H shows the control value of more than 50%) | L (L shows the control value of 50% or less) | L (L shows the control value of 50% or less) | H (H shows the control value of more than 50%) | –
14 | Cc1c(F)cccc1-n1cc(Br)c(=O)c(Br)c1-c1c(F)cc(F)cc1F [Compound 186] | – | – | – | – | – | H (H shows the control value of more than 50%) | H (H shows the control value of more than 50%) | H (H shows the control value of more than 50%) | L (L shows the control value of 50% or less) | H (H shows the control value of more than 50%) | –
15 | O=c1c(Br)cn(-c2ccc(F)cc2Cl)c(-c2c(F)cccc2F)c1Br [Compound 97] | – | – | – | – | – | – | – | – | – | – | Test B control value class (tomato gray mold) [1, 6]: H (H shows the control value of more than 50%); Test E control value class (wheat brown rust) [2, 7]: H (H shows the control value of more than 50%); Test D control value class (barley powdery mildew) [3, 8]: L (L shows the control value of 50% or less); Test G control value class (grape downy mildew) ([4]; 250 ppm spray): L (L shows the control value of 50% or less); Test C control value class (cabbage Alternaria sooty spot) [5, 9]: H (H shows the control value of more than 50%)
16 | Cc1cccc(F)c1-n1cc(Br)c(=O)c(Br)c1-c1ccc(F)cc1 [Compound 359] | – | – | – | – | – | H (H shows the control value of more than 50%) | L (L shows the control value of 50% or less) | L (L shows the control value of 50% or less) | L (L shows the control value of 50% or less) | L (L shows the control value of 50% or less) | –
17 | Cc1ccc(C(F)(F)F)cc1-n1cc(Br)c(=O)c(Br)c1-c1c(F)cc(F)cc1F [Compound 310] | – | – | – | – | – | H (H shows the control value of more than 50%) | H (H shows the control value of more than 50%) | L (L shows the control value of 50% or less) | L (L shows the control value of 50% or less) | L (L shows the control value of 50% or less) | –
18 | CCc1c(-c2c(F)cccc2F)n(-c2cc(F)ccc2C)cc(Br)c1=O [Compound 541] | L (L shows the control value of 50% or less) | L (L shows the control value of 50% or less) | L (L shows the control value of 50% or less) | L (L shows the control value of 50% or less) | H (H shows the control value of more than 50%) | – | – | – | – | – | –
19 | O=c1c(Br)cn(-c2ccccc2Cl)c(-c2ccccc2)c1Cl [Compound 388] | H (H shows the control value of more than 50%) | H (H shows the control value of more than 50%) | L (L shows the control value of 50% or less) | L (L shows the control value of 50% or less) | L (L shows the control value of 50% or less) | – | – | – | – | – | –
20 | Cc1ccccc1-n1cc(C)c(=O)c(Br)c1-c1c(F)cc(F)cc1F [Compound 197] | – | – | – | – | – | H (H shows the control value of more than 50%) | H (H shows the control value of more than 50%) | H (H shows the control value of more than 50%) | H (H shows the control value of more than 50%) | H (H shows the control value of more than 50%) | –
